Assay results published in the supplement of paper PMC4967469.

Tests used:
Assay in all cases: Viability of human cancer cell lines after 72 h of drug (GDSC screen)
KIN001-135 = compound: COc1cc2ncn(-c3cc(OCc4ccccc4S(C)(=O)=O)c(C#N)s3)c2cc1OC [KIN001-135]; conditions: top dose 5 µM; top dose inferred
Procedure: (§1)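 Human cancer cell lines in 384-well plates, medium with 10% serum, drug for 72 h over a 256-fold dose range (nine 2-fold or five 4-fold steps up to the top dose). Adherent lines were fixed and stained with the nucleic acid dye Syto60, suspension lines read with resazurin; signal relative to control wells, capped at 0 and 100%. One two-parameter sigmoid per drug and line, fitted in a mixed model over all curves with the slope shared within a line.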

BMS-708163 = compound: NC(=O)[C@@H](CCC(F)(F)F)N(Cc1ccc(-c2ncon2)cc1F)S(=O)(=O)c1ccc(Cl)cc1 [BMS-708163]; conditions: top dose 5 µM; screen: GDSC drug entry 1072; top dose inferred
Procedure: as §1

PAC-1 = compound: C=CCc1cccc(/C=N/NC(=O)CN2CCN(Cc3ccccc3)CC2)c1O [PAC-1]; conditions: top dose 2.56 µM
Procedure: as §1

Parthenolide = compound: C=C1C(=O)O[C@H]2[C@H]1CC/C(C)=C/CC[C@@]1(C)O[C@@H]21 [Parthenolide]; conditions: top dose 5 µM
Procedure: as §1

Cell Line | AUC (KIN001-135) | IC50 (KIN001-135) | AUC (BMS-708163) | IC50 (BMS-708163) | AUC (PAC-1) | IC50 (PAC-1) | AUC (Parthenolide) | IC50 (Parthenolide)
NCI-H1304 (small cell lung carcinoma, suspension) | 0.983 | > 5 µM | 0.968 | > 5 µM | 0.924 | > 2.56 µM | 0.886 | > 5 µM
NCI-H1355 (lung adenocarcinoma, adherent) | 0.972 | > 5 µM | 0.956 | > 5 µM | 0.916 | > 2.56 µM | 0.898 | > 5 µM
NCI-H1395 (lung adenocarcinoma, adherent) | 0.947 | > 5 µM | 0.937 | > 5 µM | 0.965 | > 2.56 µM | 0.973 | > 5 µM
NCI-H1417 (small cell lung carcinoma, suspension) | 0.931 | > 5 µM | 0.84 | 4.45 µM | 0.841 | 2.29 µM | 0.976 | > 5 µM
NCI-H1436 (small cell lung carcinoma, suspension) | 0.985 | > 5 µM | 0.986 | > 5 µM | 0.976 | > 2.56 µM | 0.873 | > 5 µM
NCI-H1581 (large cell lung carcinoma, semi-adherent) | 0.981 | > 5 µM | 0.976 | > 5 µM | 0.989 | > 2.56 µM | 0.989 | > 5 µM
NCI-H1648 (lung adenocarcinoma, adherent) | 0.967 | > 5 µM | 0.782 | 2.23 µM | 0.984 | > 2.56 µM | 0.98 | > 5 µM
NCI-H1666 (lung adenocarcinoma, semi-adherent) | 0.973 | > 5 µM | 0.949 | > 5 µM | 0.973 | > 2.56 µM | 0.955 | > 5 µM
NCI-H1694 (small cell lung carcinoma, suspension) | 0.989 | > 5 µM | 0.989 | > 5 µM | 0.982 | > 2.56 µM | 0.969 | > 5 µM
NCI-H1770 (non-small cell lung carcinoma, suspension) | 0.992 | > 5 µM | 0.991 | > 5 µM | 0.973 | > 2.56 µM | 0.969 | > 5 µM
NCI-H1836 (small cell lung carcinoma, suspension) | 0.986 | > 5 µM | 0.984 | > 5 µM | 0.983 | > 2.56 µM | 0.988 | > 5 µM
NCI-H1869 (lung squamous cell carcinoma, adherent) | 0.98 | > 5 µM | 0.985 | > 5 µM | 0.932 | > 2.56 µM | 0.923 | > 5 µM
NCI-H1876 (small cell lung carcinoma, adherent) | 0.986 | > 5 µM | 0.98 | > 5 µM | 0.979 | > 2.56 µM | 0.924 | > 5 µM
NCI-H1963 (small cell lung carcinoma, suspension) | 0.991 | > 5 µM | 0.991 | > 5 µM | 0.934 | > 2.56 µM | 0.866 | 3.53 µM
NCI-H1975 (lung adenocarcinoma, adherent) | 0.983 | > 5 µM | 0.979 | > 5 µM | 0.961 | > 2.56 µM | 0.974 | > 5 µM
NCI-H2081 (small cell lung carcinoma, suspension) | 0.985 | > 5 µM | 0.989 | > 5 µM | 0.987 | > 2.56 µM | 0.986 | > 5 µM
NCI-H2135 (non-small cell lung carcinoma, adherent) | 0.987 | > 5 µM | 0.984 | > 5 µM | 0.989 | > 2.56 µM | 0.985 | > 5 µM
NCI-H2141 (small cell lung carcinoma, suspension) | 0.979 | > 5 µM | 0.989 | > 5 µM | 0.97 | > 2.56 µM | 0.99 | > 5 µM
NCI-H2227 (small cell lung carcinoma, semi-adherent) | 0.969 | > 5 µM | 0.958 | > 5 µM | 0.983 | > 2.56 µM | 0.984 | > 5 µM

Cell Line | AUC (KIN001-135) | IC50 (KIN001-135) | AUC (BMS-708163) | IC50 (BMS-708163) | AUC (PAC-1) | IC50 (PAC-1) | AUC (Parthenolide) | IC50 (Parthenolide)
NCI-SNU-1 (stomach, suspension) | 0.985 | > 5 µM | 0.981 | > 5 µM | 0.959 | > 2.56 µM | 0.959 | > 5 µM
NCI-SNU-5 (stomach, suspension) | 0.983 | > 5 µM | 0.986 | > 5 µM | 0.987 | > 2.56 µM | 0.98 | > 5 µM
NCI-SNU-16 (stomach, suspension) | 0.965 | > 5 µM | 0.985 | > 5 µM | 0.989 | > 2.56 µM | 0.969 | > 5 µM
NEC8 (testis, adherent) | 0.99 | > 5 µM | 0.939 | > 5 µM | 0.922 | > 2.56 µM | 0.903 | 4.86 µM
NH-12 (neuroblastoma, adherent) | 0.985 | > 5 µM | 0.913 | > 5 µM | 0.757 | 0.979 µM | 0.95 | > 5 µM
NKM-1 (acute myeloid leukaemia, suspension) | 0.984 | > 5 µM | 0.984 | > 5 µM | 0.786 | 1.14 µM | 0.942 | > 5 µM
NMC-G1 (glioma, adherent) | 0.979 | > 5 µM | 0.815 | 3.55 µM | 0.981 | > 2.56 µM | 0.982 | > 5 µM
NOMO-1 (acute myeloid leukaemia, suspension) | 0.976 | > 5 µM | 0.982 | > 5 µM | 0.951 | > 2.56 µM | 0.981 | > 5 µM
NOS-1 (osteosarcoma, adherent) | 0.961 | > 5 µM | 0.98 | > 5 µM | 0.827 | 2.08 µM | 0.975 | > 5 µM
NTERA-2 cl.D1 (testis, adherent) | 0.985 | > 5 µM | 0.984 | > 5 µM | 0.879 | > 2.56 µM | 0.962 | > 5 µM
OCI-AML2 (acute myeloid leukaemia, suspension) | 0.995 | > 5 µM | 0.993 | > 5 µM | 0.959 | > 2.56 µM | 0.917 | 4.05 µM
OCI-AML3 (acute myeloid leukaemia, suspension) | 0.99 | > 5 µM | 0.991 | > 5 µM | 0.991 | > 2.56 µM | 0.991 | > 5 µM
OCI-AML5 (acute myeloid leukaemia, suspension) | 0.986 | > 5 µM | 0.985 | > 5 µM | 0.984 | > 2.56 µM | 0.869 | 3.93 µM
OCI-LY-19 (B-cell lymphoma, suspension) | 0.987 | > 5 µM | 0.986 | > 5 µM | 0.73 | 0.678 µM | 0.822 | 2.62 µM
OCI-M1 (acute myeloid leukaemia, suspension) | 0.995 | > 5 µM | 0.992 | > 5 µM | 0.994 | > 2.56 µM | 0.944 | > 5 µM
OCUB-M (breast, adherent) | 0.983 | > 5 µM | 0.988 | > 5 µM | 0.981 | > 2.56 µM | 0.91 | > 5 µM
OMC-1 (cervix, adherent) | 0.988 | > 5 µM | 0.984 | > 5 µM | 0.987 | > 2.56 µM | 0.988 | > 5 µM
ONS-76 (medulloblastoma, adherent) | 0.984 | > 5 µM | 0.928 | > 5 µM | 0.917 | > 2.56 µM | 0.975 | > 5 µM
OPM-2 (myeloma, suspension) | 0.977 | > 5 µM | 0.993 | > 5 µM | 0.969 | > 2.56 µM | 0.947 | > 5 µM

Cell Line | AUC (KIN001-135) | IC50 (KIN001-135) | AUC (BMS-708163) | IC50 (BMS-708163) | AUC (PAC-1) | IC50 (PAC-1) | AUC (Parthenolide) | IC50 (Parthenolide)
OS-RC-2 (kidney, adherent) | 0.965 | > 5 µM | 0.978 | > 5 µM | 0.9 | > 2.56 µM | 0.865 | > 5 µM
P30-OHK (lymphoblastic leukaemia, suspension) | 0.987 | > 5 µM | 0.986 | > 5 µM | 0.852 | 1.49 µM | 0.937 | > 5 µM
P31-FUJ (acute myeloid leukaemia, suspension) | 0.996 | > 5 µM | 0.996 | > 5 µM | 0.99 | > 2.56 µM | 0.996 | > 5 µM
P32-ISH (Burkitt lymphoma, suspension) | 0.995 | > 5 µM | 0.994 | > 5 µM | 0.738 | 0.617 µM | 0.822 | 2.03 µM
PF-382 (T-cell lymphoblastic leukaemia, suspension) | 0.989 | > 5 µM | 0.991 | > 5 µM | 0.807 | 1.12 µM | 0.953 | > 5 µM
PSN1 (pancreas, adherent) | 0.991 | > 5 µM | 0.987 | > 5 µM | 0.876 | 1.87 µM | 0.95 | > 5 µM
QIMR-WIL (acute myeloid leukaemia, suspension) | 0.981 | > 5 µM | 0.984 | > 5 µM | 0.849 | 1.83 µM | 0.884 | > 5 µM
RC-K8 (B-cell lymphoma, suspension) | 0.986 | > 5 µM | 0.992 | > 5 µM | 0.934 | > 2.56 µM | 0.985 | > 5 µM
RCC10RGB (kidney, adherent) | 0.969 | > 5 µM | 0.97 | > 5 µM | 0.942 | > 2.56 µM | 0.89 | > 5 µM
REH (B-cell leukaemia, suspension) | 0.987 | > 5 µM | 0.979 | > 5 µM | 0.76 | 0.866 µM | 0.933 | > 5 µM
RF-48 (stomach, adherent) | 0.966 | > 5 µM | 0.985 | > 5 µM | 0.859 | > 2.56 µM | 0.83 | 3.66 µM
RH-1 (rhabdomyosarcoma, adherent) | 0.991 | > 5 µM | 0.992 | > 5 µM | 0.934 | > 2.56 µM | 0.991 | > 5 µM
RKO (large intestine, adherent) | 0.985 | > 5 µM | 0.984 | > 5 µM | 0.985 | > 2.56 µM | 0.849 | 3.33 µM
RL (B-cell lymphoma, suspension) | 0.95 | > 5 µM | 0.99 | > 5 µM | 0.99 | > 2.56 µM | 0.976 | > 5 µM
ROS-50 (B-cell leukaemia, suspension) | 0.985 | > 5 µM | 0.984 | > 5 µM | 0.918 | > 2.56 µM | 0.981 | > 5 µM
RPMI-6666 (Hodgkin lymphoma, suspension) | 0.955 | > 5 µM | 0.967 | > 5 µM | 0.777 | 1.25 µM | 0.849 | 4.98 µM
RPMI-8402 (T-cell lymphoblastic leukaemia, suspension) | 0.99 | > 5 µM | 0.941 | > 5 µM | 0.822 | 1.19 µM | 0.962 | > 5 µM
RPMI-8866 (chronic myeloid leukaemia, suspension) | 0.977 | > 5 µM | 0.988 | > 5 µM | 0.961 | > 2.56 µM | 0.985 | > 5 µM

A lower IC50 marks a more sensitive line; where the fit passes the top or lowest dose, that dose stands as a limit. The AUC spans the tested range (256-fold, ending at the top dose) of the same fit; values near 1 show little effect. For some of these results: The top dose, if marked as inferred, comes from the curve model; the source does not state it. For some of these results: Drugs with an entry number were screened twice under separate entries, and the two screens often disagree.
